# Source: publication PMC4336329 (PLoS ONE, 2015)
# In all, about 310,000 compounds went through this assay and about 14,000 (4.5%) showed an effect of 50% or more. Effects have a minus sign here. Some of the results follow.
# Target: human ether-à-go-go-related gene (hERG) potassium channel (human, UniProt Q12809)
# Assay: primary screen, population patch clamp on CHO cells stably expressing hERG
# 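Also: peak tail current of the secondary pulse compared with the same well before compound.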
# Chain of human ether-à-go-go-related gene (hERG) potassium channel (Q12809 whole entry, looked up): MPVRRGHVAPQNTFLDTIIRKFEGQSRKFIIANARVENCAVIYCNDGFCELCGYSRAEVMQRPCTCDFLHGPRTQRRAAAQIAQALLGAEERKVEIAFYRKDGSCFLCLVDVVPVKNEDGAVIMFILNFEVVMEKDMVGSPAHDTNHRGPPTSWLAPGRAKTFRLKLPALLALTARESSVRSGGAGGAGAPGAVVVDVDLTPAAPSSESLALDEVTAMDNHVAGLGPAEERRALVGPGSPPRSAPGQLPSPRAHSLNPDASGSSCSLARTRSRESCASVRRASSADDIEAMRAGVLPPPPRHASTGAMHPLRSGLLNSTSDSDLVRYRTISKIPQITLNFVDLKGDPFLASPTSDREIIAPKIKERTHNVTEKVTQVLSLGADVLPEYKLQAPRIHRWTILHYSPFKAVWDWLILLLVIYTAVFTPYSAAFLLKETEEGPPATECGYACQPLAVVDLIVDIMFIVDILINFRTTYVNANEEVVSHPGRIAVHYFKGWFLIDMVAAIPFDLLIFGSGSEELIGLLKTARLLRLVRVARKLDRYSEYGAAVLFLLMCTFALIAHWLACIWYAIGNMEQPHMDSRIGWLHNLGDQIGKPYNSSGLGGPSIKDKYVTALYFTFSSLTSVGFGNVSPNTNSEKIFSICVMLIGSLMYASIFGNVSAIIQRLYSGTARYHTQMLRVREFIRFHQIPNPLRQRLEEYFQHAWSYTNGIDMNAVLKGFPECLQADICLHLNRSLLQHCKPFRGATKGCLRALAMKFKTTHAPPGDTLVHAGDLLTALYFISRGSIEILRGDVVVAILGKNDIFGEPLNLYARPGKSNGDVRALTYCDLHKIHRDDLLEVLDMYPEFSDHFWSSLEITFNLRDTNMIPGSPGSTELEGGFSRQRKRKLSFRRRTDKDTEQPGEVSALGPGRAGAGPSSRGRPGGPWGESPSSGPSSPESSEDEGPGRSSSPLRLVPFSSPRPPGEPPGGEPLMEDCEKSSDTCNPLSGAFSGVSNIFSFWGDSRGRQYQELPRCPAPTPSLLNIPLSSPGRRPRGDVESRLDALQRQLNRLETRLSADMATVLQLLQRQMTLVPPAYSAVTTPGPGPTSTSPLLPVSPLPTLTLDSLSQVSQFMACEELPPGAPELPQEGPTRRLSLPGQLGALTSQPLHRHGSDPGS
row,SMILES,"hERG current change (%, negative = inhibition) at 10uM [%]"
1,CCCn1c(SCC(=O)NNC(=O)c2ccc(C)cc2)nnc1C(C)C,10.8
2,COc1cc(CCNC(=O)c2ccccc2NC(=O)C2=C(C)OCCS2)cc(OC)c1OC,-3.59
3,O=C(CN1CCN(c2ccccc2)CC1)Nc1ccc(Oc2ccccc2)cc1,15.6
4,COc1ccc(CC(=S)N2CCOCC2)cc1,11
5,O=C(COC(=O)/C=C/c1ccc(Cl)cc1)NCCc1ccccc1,2.89
6,C1COCCO1.Cc1ccc2nc(Nc3nc(C)cc(-c4ccccc4)n3)[nH]c(=O)c2c1,5.62
7,Cc1cc2ncn(S(=O)(=O)N3CCOCC3)c2cc1C,12.6
8,COc1ccc(S(=O)(=O)n2nc(OC(=O)c3ccncc3)cc2N)cc1,16.9
9,O=C(Nc1ccc(C(F)(F)F)cc1)N1CCN(C(=O)c2ccco2)CC1,-21.8
10,C(=N\N1CCN(Cc2ccccc2)CC1)/c1cccs1,-8.88
11,C#CCOC(=O)C[N+](C)(C)CC#Cc1ccccc1.[Cl-],33.3
12,CCCCn1c(N)c(N(CCOC)C(=O)c2ccc(OCc3c(C)noc3C)cc2)c(=O)[nH]c1=O,8.48
13,CC1=C(C(=O)OCc2ccccc2)C(c2ccc(C(F)(F)F)cc2)NC(=O)N1CCCCCC(=O)O (centres unmarked),0.239
14,C[C@H](NC(=O)c1nc[nH]c1C(=O)NCc1ccccc1)C(=O)OC(C)(C)C,-13.9
15,CCOc1ccc(-n2c(=O)c3sccc3n(Cc3cccc([N+](=O)[O-])c3)c2=O)cc1,15.1
16,COc1c(Br)cc(Br)cc1/C=N/NC(=O)c1cccnc1,-3.77
17,CCOC(=O)c1c(NC(=O)CSc2nnc(Cc3ccccc3)o2)sc(C(C)=O)c1C,-64.8
18,COc1ccc(CN(C)C(C)C(=O)Nc2ccc([N+](=O)[O-])cc2Cl)cc1OC (centres unmarked),-35.9
19,COC(=O)Cc1c(C)c2ccc(OCC(=O)N3CCCC(C)C3)c(C)c2oc1=O (centres unmarked),-23.6
20,CCCC1(c2ccccc2)NC(=O)N(CC(=O)N2CC(=O)Nc3ccccc32)C1=O (centres unmarked),6.34
21,COc1ccc(CNC(=O)CSc2ncn[nH]2)cc1,-3.87
22,NC(=O)CC1C(=O)N(c2ccc(F)cc2)C(=O)N1NC(=O)CCc1ccccc1 (centres unmarked),6.14
23,O=C(Nc1c(C(=O)N2CCN(c3ccccn3)CC2)oc2ccccc12)c1ccc([N+](=O)[O-])cc1,-51
24,O=c1c(-c2cccc([N+](=O)[O-])c2)[n+]([O-])c2ccccc2n1O,20.4
25,COc1ccc(/C=N/NC(=O)Nc2nonc2N)cc1,-9.74
26,Cn1ccnc1SCc1cc(=O)[nH]c2ccccc12,18.7
27,CCCCCN(C(=O)CCC(=O)OCc1cccc(F)c1)c1c(N)n(CCCC)c(=O)[nH]c1=O,3.76

row,SMILES,"hERG current change (%, negative = inhibition) at 10uM [%]"
1,CC1CN(Cc2cc(=O)oc3cc(O)c(Cl)cc23)CC(C)O1 (centres unmarked),13.8
2,Cc1ccc(S(=O)(=O)N2CCCOC2CNC(=O)C(=O)NCCc2c[nH]c3ccccc23)cc1 (centres unmarked),1.28
3,CC1(C)CC(=O)C2=C(C1)N(c1ccc(Cl)cc1)C(=O)C2(O)C(F)(F)F (centres unmarked),-47.1
4,CC(OC(=O)CNC(=O)COc1ccccc1)C(=O)N(C)Cc1ccccc1 (centres unmarked),5.07
5,CC(C)(CNS(=O)(=O)c1ccc2c(c1)OCCO2)N1CCOCC1.Cl,25.6
6,CCOc1ccccc1NC(=S)N(CCCN1CCOCC1)Cc1cn(C)c2ccccc12,-24.5
7,C#CC(C)(C)NC(=O)c1ccc(-c2ccccc2F)cc1,4.41
8,Cc1nn(C)cc1NC(=O)CCSc1nc(-c2ccco2)cc(C(F)(F)F)n1,-5.29
9,Cc1ccc(S(=O)(=O)N(C)C)cc1NC(=O)CSc1nc2ccccc2c(=O)n1CC1CCCO1 (centres unmarked),-16.4
10,Cc1ccc(C)c(N2CCN(C(=O)c3cc(S(=O)(=O)N4CCOCC4)ccc3F)CC2)c1,-10.4
11,CC(=O)O[C@@H]1[C@@H](O)[C@@H](O)[C@H](Oc2c(-c3ccc(O)cc3)oc3c(CC=C(C)C)c(O)cc(O)c3c2=O)O[C@H]1C,16.4
12,COc1ccccc1NC1=NC2(CCCC2)N=C(N)N1,2.84
13,Cc1ccnc(NC(=O)CN2C(=O)c3ccccc3C2=O)c1,16.3
14,CCCOc1ccc(/C(O)=C2/C(=O)C(=O)N(CCCOC)C2c2ccncc2)cc1 (centres unmarked),-53.1
15,CCCn1c(CC)nc([N+](=O)[O-])c1Sc1ccc(F)cc1,-6.95
16,CC(C)OP(=O)(OC(C)C)C(Nc1ccc([N+](=O)[O-])cc1)c1cccc([N+](=O)[O-])c1 (centres unmarked),-29.9
17,CNC(=S)N(CCCO)Cc1cc2cc3c(cc2[nH]c1=O)OCO3,16.8
18,COc1ccc(-n2nnc3c(SCC(=O)N4CCCc5ccccc54)ncnc32)cc1,13.6
19,O=C(CN1C(=O)c2ccccc2S1(=O)=O)c1ccc(OC(F)F)cc1,-23
20,CCCc1cc(=O)[nH]c(SCC(=O)N2CCN(S(=O)(=O)c3ccc(C)cc3)C2)n1,5.6
21,COC(=O)C1=C(c2cc3ccccc3o2)C[C@@H]2CC[C@H]1N2C(=O)NCc1cccc2ccccc12,0.0943
22,CSCCC(NS(=O)(=O)c1ccc2c(c1)OCCO2)C(=O)NCCc1ccccn1 (centres unmarked),22.4
23,COc1ccc(C(=O)/C=C/Nc2cccc(O)c2)cc1,10.3
24,C=C(C)COc1ccc(-c2ncncc2-c2ccc(Br)cc2)c(O)c1,18.5
25,COCCCNC(=O)c1cc2cc(Br)ccc2oc1=O,26.2
26,N#CCC(=O)N/N=C/c1cn(Cc2ccc3ccccc3c2)c2ccccc12,21.9
